Results on eight molecules are retold here after article PMC5681660, “Reduced hepatitis B and D viral entry using clinically applied drugs as novel inhibitors of the bile acid transporter NTCP” (Scientific Reports, 2017).

Assay [1] has as its target T1, human NTCP (Homo sapiens, UniProt Q14973).
T1 sequence (Q14973 1-349): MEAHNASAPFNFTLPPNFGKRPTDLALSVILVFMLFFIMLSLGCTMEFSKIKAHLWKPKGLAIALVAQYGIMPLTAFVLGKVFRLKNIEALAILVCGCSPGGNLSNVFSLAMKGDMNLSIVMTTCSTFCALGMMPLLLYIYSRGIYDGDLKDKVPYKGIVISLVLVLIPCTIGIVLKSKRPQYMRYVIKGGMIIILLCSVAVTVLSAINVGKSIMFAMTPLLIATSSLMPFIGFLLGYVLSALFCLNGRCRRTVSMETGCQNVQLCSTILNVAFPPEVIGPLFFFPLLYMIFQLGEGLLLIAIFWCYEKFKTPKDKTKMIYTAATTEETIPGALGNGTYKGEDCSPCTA
As to the kind of experiment: Screening taurocholate uptake assay (96-well, [14C]taurocholate, 10 µM drug). The note with it: for remaining activity at 10 µM: 10 min, read-out: %NTCP activity.

Assay [2] deals with T1, human NTCP. The assay is described as follows: Screening fluorescent competitive Myrcludex B-FITC binding assay (96-well, 10 µM drug). The note with it: for remaining activity at 10 µM: 0.5 h, read-out: %NTCP binding.

Molecules are shown by their SMILES. Structures can show the parent of a compound that is named as a salt.

With `Nc1ccn([C@H]2CC[C@@H](CO)O2)c(=O)n1` [Zalcitabine], the remaining activity at 10 µM in assay [1] turned out to be 111%; in assay [2], 86.3%.

For `COc1cc(-c2ccc(=O)[nH]n2)ccc1OC(F)F` [Zardaverine], the results for the remaining activity at 10 µM in assay [1] and in assay [2] were 41.3% and 110%, respectively.

With `Cc1cn([C@H]2C[C@H](N=[N+]=[N-])[C@@H](CO)O2)c(=O)[nH]c1=O` [Zidovudine, AZT], the “%NTCP activity” value in assay [1] (Prestwick library screen, 10 µM drug, [14C]taurocholate uptake) is reported as 81.2022%. Further, the “%NTCP binding” value in assay [2] (Prestwick library screen, 10 µM drug, Myrcludex B-FITC binding) came out at 82.6125%.

For the molecule `CC(c1cc2ccccc2s1)N(O)C(N)=O` (stereo not shown) [Zileuton], the figures for the remaining activity at 10 µM in assay [1] and in assay [2] were 80.8% and 82.9%, respectively.

Regarding `O=C1Cc2cc(CCN3CCN(c4nsc5ccccc45)CC3)c(Cl)cc2N1` [Ziprasidone Hydrochloride], the remaining activity at 10 µM came to 101% in assay [1] and 76.9% in assay [2].

As to `O=P(O)(O)C(O)(Cn1ccnc1)P(=O)(O)O` [Zoledronic acid hydrate], the remaining activity at 10 µM in assay [1] turned out to be 93.7%; in assay [2] it was 34.1%.

In the case of `NS(=O)(=O)Cc1noc2ccccc12` [Zonisamide], the remaining activity at 10 µM in assay [1] was determined as 124%; in assay [2] it was 81.3%.

Regarding `CN(C)CCOC1=Cc2ccccc2Sc2ccc(Cl)cc21` [Zotepine], the figures for the remaining activity at 10 µM in assay [1] and in assay [2] were 51.5% and 74.3%, respectively.
